Laboratory results from the supplement of paper PMC12217912.
This is one part of the list. Sequences were assembled here from the parent chain. Inactive controls read about 0.05.

B1: TEV protease; numbered along this chain (parent)
chain: MGESLFKGPRDYNPISSSICHLTNESDGHTTSLYGIGFGPFIITNKHLFRRNNGTLVVQSLHGVFKVKDTTTLQQHLVDGRDMIIIRMPKDFPPFPQKLKFREPQREERICLVTTNFQTKSMSSMVSDTSCTFPSGDGIFWKHWIQTKDGQCGSPLVSTRDGFIVGIHSASNFTNTNNYFTSVPKNFMELLTNQEAQQWVSGWRLNADSVLWGGHKVFMVKPEEPFQPVKEATQL

Variants of: B1
Assay: raw area under fraction-flipped curve 0-4 h after induction (AUC4h, not background-subtracted), DNA-recorder readout of cleavage of the substrate (dimensionless); higher = more cleavage of the substrate by the protease variant
Details: temperature: 34 °C; time window: 0-4 h after rhamnose induction
Description: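 In vivo DNA recorder in E. coli TOP10(DE3) ΔrhaA at 34 °C. Each TEVp single-site mutant (parent TEVp 0) is paired with a single-site variant of the 7-mer TEVs (canonical ENLYFQ|S). The substrate sits between flexible linkers in a Bxb1-sfGFP-TEVs-SsrA fusion, so cleavage stabilises Bxb1 and speeds flipping of a recombination array, read by NGS. The value is the raw area under the fraction-flipped curve over 0-4 h after rhamnose induction (AUC4h), with ≥20 reads per time point. It is not background-subtracted; inactive controls average about 0.047.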
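Further: Bxb1 expression induced with 0.2% (w/v) L-rhamnose at OD600 near 0.5, cultures sampled hourly, flipped fraction per protease–substrate barcode pair counted by paired-end Illumina sequencing.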

Variant | area with substrate ENLYAQS | area with substrate ENLYDQS | area with substrate ENLYEQS | area with substrate ENLYGQS | area with substrate ENLYHQS | area with substrate ENLYIQS | area with substrate ENLYKQS | area with substrate ENLYLQS | area with substrate ENLYMQS | area with substrate ENLYNQS | area with substrate ENLYQQS | area with substrate ENLYRQS | area with substrate ENLYSQS | area with substrate ENLYTQS | area with substrate ENLYVQS | area with substrate ENLYWQS | area with substrate ENLYPQS | area with substrate ENLYYQS | area with substrate ENLYCQS
Q74W | 0.0548 | 0.0746 | 0.0685 | 0.0687 | 0.0599 | 0.118 | 0.0662 | 0.069 | 0.0652 | 0.0651 | 0.0463 | 0.0653 | 0.0682 | 0.0817 | 0.0958 | 0.0716 | – | – | –
Q74E | 0.0735 | 0.0744 | 0.0769 | – | 0.0695 | 0.13 | – | 0.0917 | – | 0.0722 | 0.0759 | 0.0654 | 0.0709 | – | – | 0.0822 | 0.0614 | 0.0605 | –
N24L | 0.0792 | 0.0626 | 0.0586 | 0.0672 | 0.068 | 0.0998 | 0.0583 | 0.0543 | 0.0832 | 0.0683 | 0.067 | – | 0.0744 | 0.0655 | 0.0864 | – | 0.0536 | 0.0413 | 0.0918
S18L | 0.0928 | 0.0626 | 0.0584 | 0.0627 | 0.0654 | 0.109 | 0.0455 | 0.0742 | 0.0768 | 0.0655 | – | – | 0.0687 | 0.0904 | 0.101 | 0.0718 | 0.0818 | 0.0737 | 0.0767
A207V | 0.0788 | 0.0341 | 0.0677 | 0.0523 | 0.0716 | 0.159 | 0.0731 | – | 0.074 | 0.0655 | 0.0726 | – | 0.0679 | 0.0646 | 0.111 | 0.082 | 0.0822 | 0.0635 | –
H47V | 0.0593 | 0.0799 | – | – | 0.0577 | 0.0659 | 0.0606 | – | 0.0597 | 0.0662 | 0.0669 | 0.0624 | 0.0632 | – | 0.0596 | 0.0538 | – | 0.062 | 0.0565
H47I | 0.0496 | 0.0661 | 0.0566 | 0.069 | 0.0731 | 0.0692 | 0.0629 | – | – | – | 0.0612 | 0.0713 | – | – | 0.0588 | 0.0529 | 0.0514 | 0.0622 | 0.0702
I19C | 0.0613 | 0.0661 | 0.0659 | 0.0589 | 0.0772 | – | 0.063 | – | – | 0.0693 | 0.0616 | 0.072 | 0.0981 | 0.0635 | 0.149 | 0.0872 | 0.0762 | 0.0671 | –
E3S | 0.0809 | – | 0.0576 | – | 0.0712 | 0.121 | 0.053 | – | – | – | – | 0.07 | 0.0805 | 0.0815 | – | 0.0648 | – | – | –
G28N | 0.0908 | 0.0656 | 0.0676 | 0.0438 | 0.0681 | – | 0.0568 | 0.0654 | 0.0795 | 0.0734 | – | 0.0316 | 0.0777 | 0.0735 | 0.112 | 0.0772 | – | – | 0.067
K46L | 0.09 | 0.0589 | 0.0664 | 0.0693 | 0.0653 | – | 0.0728 | – | 0.0628 | 0.0779 | 0.0706 | 0.0591 | 0.0536 | – | 0.113 | – | 0.0653 | 0.0635 | 0.0869
K46H | 0.0596 | 0.0697 | 0.054 | 0.0522 | 0.0609 | 0.0529 | 0.0676 | 0.0459 | 0.0556 | 0.0523 | 0.0311 | 0.0492 | 0.0685 | – | 0.0654 | 0.054 | – | 0.0641 | 0.0295
S17L | 0.0644 | 0.0571 | 0.0662 | 0.0666 | 0.0671 | 0.0817 | 0.0563 | 0.0745 | 0.0906 | 0.0565 | 0.0756 | – | 0.0652 | – | 0.136 | 0.0869 | 0.0623 | 0.0636 | 0.0693
S17E | 0.0696 | 0.0635 | 0.0642 | 0.0545 | 0.0667 | 0.159 | 0.0472 | 0.0891 | 0.0929 | 0.0588 | 0.067 | 0.0352 | 0.0753 | 0.0837 | 0.119 | 0.0892 | 0.0753 | 0.0657 | 0.0952
P155Y | 0.0681 | 0.0488 | 0.0402 | 0.0428 | 0.0552 | 0.0638 | 0.0597 | – | – | – | 0.0637 | – | 0.0596 | – | 0.0607 | – | 0.0763 | 0.049 | 0.0541
S127A | 0.0849 | – | 0.0658 | 0.0696 | 0.0752 | 0.115 | 0.0603 | – | 0.089 | 0.0588 | 0.0663 | 0.0562 | – | 0.0898 | 0.144 | 0.042 | 0.0652 | 0.0893 | 0.0874
V183E | 0.0587 | 0.0475 | 0.0535 | – | 0.0554 | 0.0411 | – | – | 0.044 | – | 0.0472 | 0.0464 | 0.0416 | 0.0486 | – | – | 0.0441 | 0.0523 | –
V183Y | 0.0626 | 0.0641 | 0.1 | 0.0694 | 0.0554 | 0.0771 | – | – | 0.0572 | – | – | 0.0673 | 0.0659 | 0.0389 | – | 0.0592 | 0.048 | 0.0625 | –
L156M | 0.0912 | 0.0859 | 0.0625 | 0.0808 | 0.075 | 0.103 | 0.0717 | 0.0671 | 0.0758 | 0.0707 | – | 0.0526 | 0.0764 | – | 0.116 | – | – | 0.0724 | 0.0921
L156V | 0.0465 | 0.0624 | 0.0672 | – | 0.0825 | 0.0904 | 0.0646 | 0.0607 | 0.0814 | 0.0681 | 0.0772 | – | 0.0685 | – | 0.117 | 0.0977 | 0.0798 | 0.0431 | 0.0725
I85V | 0.0704 | 0.0636 | 0.0612 | 0.0683 | 0.0628 | 0.0966 | 0.0762 | 0.0633 | 0.0709 | 0.0638 | – | 0.0603 | 0.0524 | 0.0752 | 0.114 | 0.102 | – | – | –
Q97I | 0.0707 | – | – | 0.0853 | – | – | 0.0559 | – | 0.0578 | 0.071 | 0.0514 | – | – | – | 0.103 | – | 0.0757 | – | –
S130G | 0.0653 | 0.0567 | 0.0756 | – | 0.0612 | – | 0.0722 | – | 0.0966 | 0.0628 | – | – | – | – | 0.134 | 0.0819 | 0.0897 | 0.0694 | –
C20V | 0.0746 | 0.0626 | 0.066 | 0.0772 | 0.0802 | 0.138 | 0.0584 | 0.101 | 0.0986 | 0.0707 | 0.0591 | 0.0635 | 0.078 | 0.0744 | 0.156 | – | 0.0733 | – | 0.0993
